Results on nine compounds are retold here after PMC11494340, “High-throughput screening for small-molecule stabilizers of misfolded glucocerebrosidase in Gaucher disease and Parkinson’s disease” (Proceedings of the National Academy of Sciences of the …, 2024).

As a reminder, the AC50 is the concentration giving half of the maximal activity seen. What is called EC50 is the concentration at which the effect is half-maximal.

Series [1] concerns the target T1, GCase in HiBiT-GCase-L444P H4 cells (Homo sapiens, UniProt P04062, L483P).
T1 construct: expressed in transfected cells; host or cells: GBA1-KO H4 human neuroglioma cells, one copy at the CLYBL safe-harbor locus, CAG promoter
T1 sequence (P04062 40-536 L483P): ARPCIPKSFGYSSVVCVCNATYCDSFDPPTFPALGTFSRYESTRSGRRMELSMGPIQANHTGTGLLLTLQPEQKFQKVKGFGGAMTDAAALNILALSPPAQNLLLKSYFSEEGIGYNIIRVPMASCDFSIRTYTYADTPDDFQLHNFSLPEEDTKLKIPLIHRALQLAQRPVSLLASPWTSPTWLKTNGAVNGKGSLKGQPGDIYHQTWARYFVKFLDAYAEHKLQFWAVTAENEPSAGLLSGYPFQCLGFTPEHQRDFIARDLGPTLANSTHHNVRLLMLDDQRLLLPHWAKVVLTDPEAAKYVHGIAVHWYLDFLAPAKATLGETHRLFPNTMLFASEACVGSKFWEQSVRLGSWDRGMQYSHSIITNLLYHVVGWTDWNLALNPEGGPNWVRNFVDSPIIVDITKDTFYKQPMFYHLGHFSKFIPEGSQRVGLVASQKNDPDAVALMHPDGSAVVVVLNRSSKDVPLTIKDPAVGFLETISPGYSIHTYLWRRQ
As to the kind of experiment: GCase activity assay (4-MUG) in lysates of compound-treated cells. The series is classed as cell-based. The settings on record: 3 d, normalized to HiBiT-WT+DMSO. (In general: With HiBiT, luminescence reflects the tagged protein that the partner subunit can reach.)

Series [2] deals with T2, GCase in spots of LAMP1, HiBiT-GCase-L444P H4 cells (Homo sapiens, UniProt P04062, L483P).
T2 construct: expressed in transfected cells; host or cells: GBA1-KO H4 human neuroglioma cells, one copy at the CLYBL safe-harbor locus, CAG promoter
T2 sequence (P04062 40-536 L483P): T1 sequence (P04062 40-536 L483P)
Description: hGCase-1/23 immunofluorescence assay of GCase translocation to the lysosome. The series is classed as cell-based. The conditions noted are these: ~34 h.

The target in the next series is T3, HiBiT-GCase-L444P (Homo sapiens, UniProt P04062, L483P).
T3 sequence (P04062 40-536 L483P): T1 sequence (P04062 40-536 L483P)
More on the design: AUC: unit not given beside the values. The conditions noted are these: for EC50: n = 3; for CC-v2: qHTS curve class.

Series [3] addresses T4, GCase-L444P lysosomal activity in HiBiT-GCase-L444P H4 cells (Homo sapiens, UniProt P04062, L483P).
T4 sequence (P04062 40-536 L483P): T1 sequence (P04062 40-536 L483P)
As to the kind of experiment: LysoFix-GBA high-content lysosomal GCase activity assay.

Series [4] has as its system GluSph accumulation in HiBiT-GCase-L444P H4 cells. Description: Glucosylsphingosine (GluSph) levels by SFC-MS/MS. The class given is cell-based, human. The conditions noted are these: 3 d.
Series [5] relates to HiBiT-GCase-L444P H4 cells. Description: CellTiter-Glo cytotoxicity testing. (In general: Cellular ATP, detected with luciferase, serves as a proxy for viable cell number.)
The mark [6] stands for this setting: normalized to DMSO, 100% efficacy reflects a doubling of GCase levels.
Where [7] appears, read: 24 h compound incubation, LysoFix-GBA 5 μM.

Counter-ions that a name gives are not always drawn. Like-named read-outs stand apart in the source and are kept apart here.

`O=C(COc1ccccc1C(=O)Nc1ccc(I)cc1)Nc1ccc(I)cc1` [NCGC326, N-(4-iodophenyl)-2-(2-((4-iodophenyl)amino)-2-oxoethoxy)benzamide] showed an activity at 25 µM in series [1] (25 μM) of 5.8%. The “Increase in lysosomal GCase staining relative to DMSO” value in series [2] (25 μM) amounted to 1.45 fold. Moreover, on HiBiT-GCase-L444P (140% vs. 54%), the “Increased efficacy relative to NCGC607” value is recorded as ~ 3 fold. Moreover, at HiBiT-GCase-L444P (follow-up screen, 24 h), the activity was half-maximal at 11200 nM (AC50), the AUC stood at 333.5, the concentration giving a half-maximal response (EC50) is 11200 nM and the CC-v2 was found to be 1.1. The compound also showed an Efficacy at HiBiT-GCase-L444P (setting [6]) of 140.2%. In addition, the “LysoFix-GBA response (GCase-L444P lysosomal activity)” value (“LysoFix-GBA response” for short) in series [3] (72 h compound incubation) is listed as “up to twofold”. For the same compound, the “Effect on GluSph accumulation” value in series [4] (10 μM) is on record as “effective in reversing GluSph accumulation”. Besides, in series [4] (25 μM), the “Effect on GluSph accumulation” value is listed as “completely reversed lipid accumulation”.

On HiBiT-GCase-L444P (follow-up screen, 24 h), `Cc1sc2c(c1C)C(c1ccc(Cl)cc1)=N[C@@H](CC(=O)Nc1ccc(OCCOCCOCCOCCNc3cccc4c3C(=O)N(C3CCC(=O)NC3=O)C4=O)cc1)c1nnc(C)n1-2` (stereo partly shown) [NCGC00483927-03, ARV-825] registered an AC50 of 47.3 nM, an AUC of 333.1, a half-maximal effective concentration (EC50) of 47.3 nM and a CC-v2 of 1.3. Moreover, at HiBiT-GCase-L444P (setting [6]), the Efficacy worked out at 86.9%. Moreover, the “LysoFix-GBA response” value in series [3] (setting [7]) is listed as “two- to fourfold”.

For `Nc1c(Br)cc(Br)cc1CN[C@H]1CC[C@H](O)CC1` [NCGC00371077-02, Ambroxol HCl], in series [4] (156.25 nM), the “Effect on GluSph accumulation” value is “did not show an effect”.

`O=C(COc1ccc(Cl)cc1)N[C@H]1CC[C@H](NC(=O)COc2ccc(Cl)cc2)CC1` [NCGC00384174-12, trans-ISRIB] gave an activity at 1.25 µM in series [1] (1.25 μM) of 3.2%. Further, on HiBiT-GCase-L444P (follow-up screen, 24 h), the AC50 was found to be 11.9 nM, the AUC was 181.8, it took 11.9 nM to reach a half-maximal effect (EC50) and the CC-v2 turned out to be 1.2. The compound also gave an Efficacy at HiBiT-GCase-L444P (setting [6]) of 52.1%. For the same compound, the “LysoFix-GBA response” value in series [3] (setting [7]) is “moderate efficacy”. In series [4] (1.25 μM), the “Effect on GluSph accumulation” value is recorded as “did not show an effect”.

On to `Cc1cc(OCc2nnc(SC3CCCC3)n2-c2cccnc2)ccc1-c1ccc(S(C)(=O)=O)cc1` [NCGC00371131-03, NMS-873], for which, at HiBiT-GCase-L444P (follow-up screen, 24 h), the AC50 was 1500 nM, the AUC amounted to 92.0 and the CC-v2 is 1.1. Also, the “LysoFix-GBA response” value in series [3] (setting [7]) was “inactive”.

Take `N#Cc1cn([C@@H]2O[C@H](CO)[C@@H](O)[C@H]2O)c2ncnc(N)c12` [NCGC00387257-01, Toyocamycin]: the Cytotoxicity entry in series [5] is recorded as “cytotoxicity”. On HiBiT-GCase-L444P (follow-up screen, 24 h), this compound had an AC50 of 2700 nM, an AUC of 14.5, an EC50 of 2660 nM and a CC-v2 of 1.1. The same compound yielded an Efficacy on HiBiT-GCase-L444P (follow-up screen, 24 h, relative to DMSO control) of 140. The same compound yielded an Efficacy on HiBiT-GCase-L444P (setting [6]) of 139.6%.

`OC[C@H]1CNC[C@@H](O)[C@@H]1O` [Isofagomine]: the “LysoFix-GBA response” value in series [3] (setting [7]) was “inhibitory LysoFix-GBA response”.

With `Cc1[nH]c2ccccc2c1CCNCc1ccc(/C=C/C(=O)NO)cc1` [NCGC00263117-09, Panobinostat], the “Increase in lysosomal GCase staining relative to DMSO” value in series [2] (10 μM) was 1.6 fold. At HiBiT-GCase-L444P (follow-up screen, 24 h), the AC50 came out at 133 nM, the AUC amounted to 919.1, a half-maximal response (EC50) required 133 nM and the CC-v2 amounted to 1.1. The compound also gave an Efficacy at HiBiT-GCase-L444P (setting [6]) of 347.1%. The “LysoFix-GBA response” value in series [3] (setting [7]) is “two- to fourfold”.

Turning to `CC(C)C[C@H](NC(=O)[C@H](Cc1ccccc1)NC(=O)c1cnccn1)B(O)O` [bortezomib], the “LysoFix-GBA response” value in series [3] (setting [7]) is listed as “negative”.
